Experiment [1] deals with T1, CD23 (FcεRII) (mouse (endogenous in peritoneal PMNs and macrophages)) (UniProt P20693).
T1 sequence: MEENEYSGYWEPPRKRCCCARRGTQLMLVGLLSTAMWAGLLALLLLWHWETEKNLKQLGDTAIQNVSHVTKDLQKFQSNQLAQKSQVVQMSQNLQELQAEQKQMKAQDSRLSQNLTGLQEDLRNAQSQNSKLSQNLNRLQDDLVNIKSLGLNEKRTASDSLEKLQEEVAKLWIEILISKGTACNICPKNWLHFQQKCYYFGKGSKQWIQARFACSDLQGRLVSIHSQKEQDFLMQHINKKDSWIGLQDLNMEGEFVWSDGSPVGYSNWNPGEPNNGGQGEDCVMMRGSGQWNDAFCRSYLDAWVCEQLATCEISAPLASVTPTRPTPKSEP
As to the kind of experiment: co-IP; lysates of Wt mouse phagocytes incubated with IgGIC, LPS or both; IP with anti-CD23 (anti-FcεRII); blot with anti-TLR4 IgG.

Protein sequences, listed by entry. Tags and fused reporters are not part of them. Residues count along the entry.
UniProt Q9QUK6, residues 26-835: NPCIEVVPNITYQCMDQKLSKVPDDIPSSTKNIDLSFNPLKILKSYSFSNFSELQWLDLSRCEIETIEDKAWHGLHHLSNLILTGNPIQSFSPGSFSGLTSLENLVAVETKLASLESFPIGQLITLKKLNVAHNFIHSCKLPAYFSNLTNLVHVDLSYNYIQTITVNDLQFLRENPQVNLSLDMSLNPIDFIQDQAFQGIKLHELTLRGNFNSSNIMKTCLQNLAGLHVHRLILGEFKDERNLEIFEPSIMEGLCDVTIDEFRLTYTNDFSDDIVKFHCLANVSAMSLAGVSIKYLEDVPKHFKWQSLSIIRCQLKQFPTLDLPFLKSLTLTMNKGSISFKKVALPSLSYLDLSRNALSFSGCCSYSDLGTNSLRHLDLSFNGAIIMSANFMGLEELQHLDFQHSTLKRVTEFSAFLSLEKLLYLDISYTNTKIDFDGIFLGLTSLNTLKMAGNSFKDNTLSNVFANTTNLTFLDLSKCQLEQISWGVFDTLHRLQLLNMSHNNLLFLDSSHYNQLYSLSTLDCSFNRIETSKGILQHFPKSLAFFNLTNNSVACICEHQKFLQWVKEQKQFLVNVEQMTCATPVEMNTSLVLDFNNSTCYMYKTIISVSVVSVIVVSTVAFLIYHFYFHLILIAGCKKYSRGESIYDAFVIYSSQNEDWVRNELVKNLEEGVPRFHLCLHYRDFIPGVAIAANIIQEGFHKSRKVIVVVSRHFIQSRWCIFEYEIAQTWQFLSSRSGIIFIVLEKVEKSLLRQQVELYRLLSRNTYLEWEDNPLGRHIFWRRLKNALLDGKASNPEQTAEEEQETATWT

Experiment [2] has as its target T2, FcγReceptorIII (CD16) (mouse (endogenous in peritoneal PMNs and macrophages)) (UniProt P08508).
T2 sequence: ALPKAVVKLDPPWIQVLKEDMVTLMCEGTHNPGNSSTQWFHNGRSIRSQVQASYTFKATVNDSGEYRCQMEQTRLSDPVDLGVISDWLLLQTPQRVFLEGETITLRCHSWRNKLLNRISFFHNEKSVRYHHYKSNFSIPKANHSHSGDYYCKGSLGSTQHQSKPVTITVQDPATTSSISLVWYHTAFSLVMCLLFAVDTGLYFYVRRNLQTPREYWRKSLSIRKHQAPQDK
Kind of experiment: co-IP; reverse direction: lysates of Wt mouse peritoneal PMNs or macrophages incubated with IgGIC, LPS or both; IP with anti-FcγRIII IgG (Santa Cruz); blot with polyclonal anti-TLR4 IgG.

The target of experiment [3] is T3, TLR6 (mouse (endogenous in peritoneal PMNs and macrophages)) (UniProt Q9EPW9).
T3 sequence: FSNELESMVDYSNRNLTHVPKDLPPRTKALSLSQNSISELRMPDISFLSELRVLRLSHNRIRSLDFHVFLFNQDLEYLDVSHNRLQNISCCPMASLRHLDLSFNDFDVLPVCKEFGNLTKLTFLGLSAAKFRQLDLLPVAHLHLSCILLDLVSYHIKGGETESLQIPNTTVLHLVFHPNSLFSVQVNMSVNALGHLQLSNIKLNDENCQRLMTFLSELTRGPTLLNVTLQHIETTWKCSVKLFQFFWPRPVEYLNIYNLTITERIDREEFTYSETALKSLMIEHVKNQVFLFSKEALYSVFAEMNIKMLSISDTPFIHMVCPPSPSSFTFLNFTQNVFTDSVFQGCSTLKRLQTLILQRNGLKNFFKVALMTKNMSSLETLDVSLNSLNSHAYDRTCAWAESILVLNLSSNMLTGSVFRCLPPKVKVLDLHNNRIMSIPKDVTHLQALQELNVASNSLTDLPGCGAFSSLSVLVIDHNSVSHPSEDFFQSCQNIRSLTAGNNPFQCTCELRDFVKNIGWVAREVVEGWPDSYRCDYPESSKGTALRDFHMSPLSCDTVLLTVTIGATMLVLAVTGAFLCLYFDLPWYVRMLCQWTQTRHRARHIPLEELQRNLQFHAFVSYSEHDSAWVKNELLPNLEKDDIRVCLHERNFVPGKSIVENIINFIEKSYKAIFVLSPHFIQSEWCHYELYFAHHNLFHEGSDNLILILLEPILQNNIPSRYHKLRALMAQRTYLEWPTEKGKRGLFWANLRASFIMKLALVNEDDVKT
As to the kind of experiment: co-IP; lysates of Wt mouse phagocytes incubated with IgGIC, LPS or both; IP with anti-TLR6 IgG; blot for FcγRIII.

In experiment [4] the target is Toll-like receptor 4 (TLR4) (mouse (endogenous in peritoneal PMNs and macrophages)) (UniProt Q9QUK6). Kind of experiment: condition: only cells incubated with LPS (20 ng/ml) alone, without IgGIC; co-IP; as a1, but cells incubated 30 min with LPS (20 ng/ml) alone; IP with anti-TLR4 IgG; blot with anti-FcγRII/III mAb 2.4G2.
The target is the same in experiment [5]. Kind of experiment: co-IP; lysates (RIPA) of Wt mouse peritoneal PMNs or macrophages incubated 30 min with IgGIC (100 µg/ml; BSA IgGIC, polymyxin-treated BSA IgGIC or PAP IgGIC) or LPS+IgGIC; IP with anti-TLR4 IgG on protein A and G beads overnight; blot with anti-FcγRII/III mAb 2.4G2.

Results are given in words; binding and its absence hold for the method and conditions named. Binding seen in cells or lysates may run through a third protein. Some entries that bind do so weakly or less than the wild type.

We go through 2 molecules from PMC2685003.

Turning to “Toll-like receptor 4 (TLR4) (from UniProt Q9QUK6 26-835)”, the figures for the binding entry in experiment [1] and in experiment [2] were “no binding” and “binds”, respectively.

B1: FcγReceptorIII (CD16) (receptor, UniProt P08508 31-261)
chain: T2 sequence
Take B1: the values for the binding result in experiment [3], in experiment [4] and in experiment [5] were “no binding”, “no binding” and “binds”, respectively.
